Results published in PubChem BioAssay AID1346428 (National Center for Advancing Translational Sciences (NCATS), 2018).
Several values for one entry are separate records, joined by “and”; a condition that tells them apart may be missing. Equal entries are not always repeated. Out of some 48,000 compounds screened, about 1,200 (2.5%) were called active. Roughly 2% stayed inconclusive and do not appear here.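 The calls were made as follows: active = activation of at least 60% and not above a set upper limit (about 1 call in 100 departs from these limits); inconclusive = activation of 40% to 60%, or above that upper limit; inactive = activation under 40%.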 The list shows a part of the results.

target: Probable G-protein coupled receptor 32 (Homo sapiens) (UniProt O75388); assay: qHTS for Agonists of Human Resolvin D1 Receptor DRV1; conditions: CHO-K1 GPR32 beta-arrestin PathHunter luminescence, 90 min; at 76.9 µM; active compounds read high; zero percent set by DMSO-only wells; also: 0% is about no effect
Method in brief: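 Agonism was scored as beta-arrestin recruitment to ProLink-fused GPR32 in stably transfected CHO-K1 cells, giving a chemiluminescent beta-Gal signal; compounds were incubated 90 min at 37 °C.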

Chain of UniProt O75388 (O75388 whole entry, looked up, the tested form may be a part): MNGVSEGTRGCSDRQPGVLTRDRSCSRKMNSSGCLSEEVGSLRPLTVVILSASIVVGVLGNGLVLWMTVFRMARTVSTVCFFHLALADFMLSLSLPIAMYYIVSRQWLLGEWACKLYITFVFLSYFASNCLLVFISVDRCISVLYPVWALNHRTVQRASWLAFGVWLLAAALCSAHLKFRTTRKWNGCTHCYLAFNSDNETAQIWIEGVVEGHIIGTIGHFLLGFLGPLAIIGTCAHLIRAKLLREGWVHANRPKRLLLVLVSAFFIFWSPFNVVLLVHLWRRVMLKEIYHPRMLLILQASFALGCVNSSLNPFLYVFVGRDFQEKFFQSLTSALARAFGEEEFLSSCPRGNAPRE

SMILES | activation
COC(=O)c1ccc(Cl)cc1NC(=O)NCCc1c(C)nn(C)c1C | inactive: 32.8%
Cc1c(C(=O)N2CCOCC2)oc2c1-c1nn(CC(=O)NCc3cccc(F)c3)cc1CC2 | inactive: -3.97%
CC(C)(C)C1CCc2c(sc(NC(=O)Cn3nnc(-c4ccccc4Cl)n3)c2C#N)C1 (configuration not stated) | active: 89.3%
COc1ccc(-n2ccnc2SCC(=O)Nc2ccc3c(c2)OCO3)cc1 | inactive: -15.6%
Cc1ccc(CNc2ccc(-c3nc(-c4ccncc4)no3)cc2[N+](=O)[O-])cc1 | inactive: 6.77%
CCOC(=O)c1c(C)[nH]c(C)c1S(=O)(=O)N1CCC(C(=O)Nc2cc(C)ccn2)CC1 | inactive: -1.75%
Cc1ccc(Cl)cc1N1CCN(C(=O)C2CCC(CNS(=O)(=O)c3cccs3)CC2)CC1 (configuration not stated) | inactive: -18.8%
Cc1cccc(N2CCN(C(=O)CS(=O)(=O)c3cccc4nsnc34)CC2)c1C | inactive: 23.5%
Cc1ccc2nc(COc3ccccc3NC(=O)COc3ccc(F)cc3)cc(=O)n2c1 | inactive: -5.26%
CCc1ccccc1NS(=O)(=O)c1ccc2[nH]cc(C(=O)N(CC(C)C)CC(C)C)c(=O)c2c1 | inactive: -8.34%
Cc1ccc(-c2nc(S(=O)(=O)c3ccccc3)c(N3CCN(c4ccccc4)CC3)o2)cc1 | inactive: -3.08%
CCc1ccccc1N(CC)C(=O)c1c(C)oc2ncn(C)c(=O)c12 | inactive: -10.9%
COc1ccccc1N1CCN(C(=O)c2cc(CC(C)C)on2)CC1 | inactive: 22.4%
Cc1cccc(C(C)C)c1NC(=O)Cn1c(=O)oc2cc(S(=O)(=O)N3CCCC3)ccc21 | inactive: -9%
COc1ccc(-c2nc(SCC(=O)Nc3ccc4c(c3)OCCO4)c(-c3ccc(F)cc3)[nH]2)cc1 | inactive: 15.8%
O=C(Nc1ccccc1C(=O)OCc1cc(=O)n2c3c(sc2n1)CCCC3)c1ccc(F)cc1 | inactive: -22.7%
COc1ccc(NC(=O)C2CCN(S(=O)(=O)c3ccc4c(c3)CCCC(=O)N4)CC2)cc1OC | inactive: -20.8%
CCc1ccc2nc(N(CCN(CC)CC)C(=O)c3cccs3)sc2c1 | inactive: 44.3%
COc1ccc(OC)c(/C=C/c2nc3ccccc3c(=O)n2-c2ccc(F)c(Cl)c2)c1 | inactive: -12.9%
Cc1ccc(NC(=O)C2CCCN(S(=O)(=O)c3c(C)n[nH]c3C)C2)c(C)c1 (configuration not stated) | inactive: -1.48%
COCc1nnc(NC(=O)c2cc(OC)c(OC)c(OC)c2)s1 | inactive: 5.35%

SMILES | activation
CCC(C(=O)Nc1cc(C)ccc1C)n1c(=O)c(C(F)(F)F)nc2ccccc21 (configuration not stated) | inactive: 5.98%
COc1ccc(C(=O)/C=C/c2cn(CC(O)CN3CCc4ccccc43)c3ccccc23)cc1OC (configuration not stated) | inactive: 16.6%
COc1cccc(CNS(=O)(=O)c2cnc(N)nc2)c1 | inactive: -9.89%
COCC(=O)n1nc(-c2ccco2)nc1NCc1ccccc1Cl | inactive: -11.2%
Nc1nc2c(ncn2COC(CO)CO)c(=O)[nH]1 | inactive: -5.3% and inactive: -1.37%
Cc1cc(C)n(-c2nc(C)c(C)c(=O)n2CC(=O)Nc2ccc([N+](=O)[O-])cc2)n1 | inactive: -13.4%
COc1cc(OC)cc(C(=O)Nc2ccc(-c3nc4ccccc4s3)cc2C)c1 | inactive: 3.33%
CC12C(=O)OC(=O)C1(C)C1CCC2O1 (configuration not stated) | inactive: -34.4%
COc1ccc(CCNC(=O)c2ccc3c(c2)N(Cc2ccc(F)cc2)C(=O)c2ccccc2S3(=O)=O)cc1OC | inactive: -36%
C[n+]1c2cc(N)ccc2cc2ccc(N)cc21 (tested in a mixture with another compound) | inactive: 14.7%
COc1ccccc1CNC(=O)CCc1c(C)c2cc3c(C)c(C)oc3cc2oc1=O | inactive: -21.1%
CCc1nn(CC(=O)NCc2ccco2)c(=O)c2cc3c(OC)cccc3n12 | inactive: -5.63%
C=CCc1cccc2cc(-c3nc4ccc(C)cc4[nH]3)c(=O)oc12 | inactive: -14.7%
CCOC(=O)c1ccc(NC(=O)Cn2cc(C(=O)C3CC3)c3ccccc32)cc1 | inactive: -9.23%
Cc1c(C(=O)Nc2cccc(C(F)(F)F)c2)sc2nc[nH]c(=O)c12 | inactive: 20%
Cc1ccccc1Nc1c(-c2c(F)cccc2Cl)nc2ccc(Br)cn12 | inactive: -16.3%
CCOC(=O)c1ccc(NC(=O)CCCn2c(=O)c3cccn3c3ccccc32)cc1 | inactive: -20.8%
Cc1ccc(-n2ncc3c(NCCCN4CCOCC4)ncnc32)cc1C | inactive: 34.9%
COC(=O)c1ccc(C2Nc3c(C)cccc3-c3cc(C)nn32)cc1 (configuration not stated) | inactive: -11.5%
O=C(Cn1c(=O)oc2cc(S(=O)(=O)NCc3ccccc3)ccc21)Nc1cccc(F)c1 | active: 67.3%
COc1ccccc1CNc1nc2c(S(=O)(=O)c3ccc(C)c(C)c3)nnn2c2ccc(Cl)cc12 | inactive: -3.99%
